Target: T1, cytosolic domain of human PRRG4 (human, UniProt Q9BZD6 139-226)
T1 construct: Expressed in insect cells; also called cytosolic hPPRG4; cystosolic domain of hPPRG4; not shown: purified by HA and histidine columns, so HA and His tags are implied
T1 sequence: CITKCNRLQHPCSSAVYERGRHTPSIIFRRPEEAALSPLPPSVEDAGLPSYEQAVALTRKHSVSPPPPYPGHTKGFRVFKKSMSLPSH
Test: SH3 domain array probed with purified cytosolic hPRRG4; listed as a hit
Description: The cystosolic domain of hPPRG4 was expressed in insect cells and proteins were purified by HA and histidine columns. Interactions of cytosolic hPPRG4 with different SH3 and WW domains were tested by incubating purified hPRRG4 proteins with arrays containing SH3 and WW domains of several proteins. After incubation, PRRG4 bound to several proteins, most of which are non-receptor tyrosine kinases or scaffolding proteins. These newly identified binding partners provide valuable therapeutic targets for the isolation and characterization of therapeutic agents that impact PRRG4 mediated oncogenesis.

B1: Hemopoietic cell kinase: SRC Kinase (other, UniProt P08631 78-138, looked up)
chain: SEDIIVVALYDYEAIHHEDLSFQKGDQMVVLEESGEWWKARSLATRKEGYIPSNYVARVDS
notes: domain: SH3 domain; Array spot; also called HCK
B1: binds.

— patent publication US20100017897A1 (CHILDREN S HOSPITAL OF PHILADELPHIA, published 2010)
